Source: publication PMC4336329 (PLoS ONE, 2015)
Screen size: about 310,000 compounds; about 14,000 (4.5%) showed an effect of 50% or more. The effect is printed as a negative number. The list shows a part of the results.

Each molecule was assayed against human ether-à-go-go-related gene (hERG) potassium channel (human, UniProt Q12809) (assay: primary screen, population patch clamp on CHO cells stably expressing hERG).
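Further: peak tail current of the secondary pulse compared with the same well before compound.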

human ether-à-go-go-related gene (hERG) potassium channel, sequence (Q12809 whole entry, looked up): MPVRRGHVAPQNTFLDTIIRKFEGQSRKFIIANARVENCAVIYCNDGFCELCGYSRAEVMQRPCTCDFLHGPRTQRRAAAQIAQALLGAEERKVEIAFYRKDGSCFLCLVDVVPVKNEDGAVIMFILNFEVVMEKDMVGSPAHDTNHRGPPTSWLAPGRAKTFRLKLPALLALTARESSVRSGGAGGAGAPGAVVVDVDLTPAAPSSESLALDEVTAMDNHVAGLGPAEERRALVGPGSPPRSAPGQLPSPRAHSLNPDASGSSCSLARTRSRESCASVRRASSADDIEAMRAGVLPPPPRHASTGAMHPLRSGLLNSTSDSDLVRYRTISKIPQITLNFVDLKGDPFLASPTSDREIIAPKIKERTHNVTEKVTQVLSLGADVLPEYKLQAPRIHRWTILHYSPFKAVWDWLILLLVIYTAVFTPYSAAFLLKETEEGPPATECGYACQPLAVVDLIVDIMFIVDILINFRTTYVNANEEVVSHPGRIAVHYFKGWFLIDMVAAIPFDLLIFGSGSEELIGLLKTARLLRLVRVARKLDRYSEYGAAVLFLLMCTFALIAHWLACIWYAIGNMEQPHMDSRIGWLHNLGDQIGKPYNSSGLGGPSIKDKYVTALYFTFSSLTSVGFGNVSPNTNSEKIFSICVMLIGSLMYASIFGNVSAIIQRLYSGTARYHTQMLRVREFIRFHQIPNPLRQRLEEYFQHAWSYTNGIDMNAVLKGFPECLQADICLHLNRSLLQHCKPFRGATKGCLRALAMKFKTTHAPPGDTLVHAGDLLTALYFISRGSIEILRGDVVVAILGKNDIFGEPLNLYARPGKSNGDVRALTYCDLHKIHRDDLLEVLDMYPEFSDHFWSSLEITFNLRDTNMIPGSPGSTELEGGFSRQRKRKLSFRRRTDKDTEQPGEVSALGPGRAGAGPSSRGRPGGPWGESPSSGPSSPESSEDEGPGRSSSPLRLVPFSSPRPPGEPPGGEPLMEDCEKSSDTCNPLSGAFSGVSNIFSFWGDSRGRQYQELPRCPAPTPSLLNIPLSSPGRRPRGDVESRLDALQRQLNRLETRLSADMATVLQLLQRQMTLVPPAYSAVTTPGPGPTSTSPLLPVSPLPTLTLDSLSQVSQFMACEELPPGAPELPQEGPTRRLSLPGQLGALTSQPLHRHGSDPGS

Compared with `O=C(COC(=O)CC1CC2CCC1C2)Nc1ccc(Cl)c(S(=O)(=O)N2CCOCC2)c1` (stereo not drawn), `O=C(COC(=O)C1CCN(S(=O)(=O)c2cc([N+](=O)[O-])ccc2Cl)CC1)Nc1ncc(Cl)cc1Cl` is lower in “hERG current change (%, negative = inhibition) at 10uM” value: -23.5% for the first, -57.6% for the second.

First: CCCn1c(C)cc(C(=O)COC(=O)CN=C2NS(=O)(=O)c3ccccc32)c1C
Second: CCOC(=O)C(C)Sc1nc2c(c(=O)[nH]c(=O)n2C)n1CCc1ccccc1 (stereo not drawn)
The “hERG current change (%, negative = inhibition) at 10uM” value of the first is higher: 18.2% for the first, -49.8% for the second.

Going from `CCc1ccc(N=Nc2ccc(O)c3[nH]cnc23)cc1.[Cl-]` to `CCN(CC)c1ccc(C=Nc2cccnc2Cl)c(O)c1`, the “hERG current change (%, negative = inhibition) at 10uM” value falls from 10% to 7.57%.

Going from `COCc1cc(C)nc(OC)c1C(N)=O` to `COCCCNC(=O)Cn1nc(-c2cccc(OC)c2)ccc1=O`, the “hERG current change (%, negative = inhibition) at 10uM” value falls from 34.8% to 6.99%.

First: Nc1c(C(=O)NC2CCCC2)c2nc3ccccc3nc2n1/N=C/c1ccco1
Second: Cc1oncc1C(=O)NC1CCCCC1
The “hERG current change (%, negative = inhibition) at 10uM” value of the first is lower: -10.6% for the first, 13.6% for the second.

First: Cc1nnc(SCC(=O)N2N=C(c3ccc(Cl)cc3)CC2c2ccco2)[nH]c1=O (stereo not drawn)
Second: Cc1cc(C)n(C(=O)CSc2ccc(Cl)cc2)n1
The “hERG current change (%, negative = inhibition) at 10uM” value of the first is higher: 5% for the first, -9.36% for the second.

Compared with `CCOC(=O)c1ccc(NS(=O)(=O)c2c(N)n(C)c(=O)n(C)c2=O)cc1`, `CCn1c(SCc2cc(=O)[nH]c3ccccc23)nc2c1c(=O)n(C)c(=O)n2C` is lower in “hERG current change (%, negative = inhibition) at 10uM” value: 11.5% for the first, -19.9% for the second.

Going from `CCN1C(=NCc2ccco2)N[C@@H](c2cccc(F)c2)C(C(=O)OC)=C1C` to `COC(=O)c1cc(OC)c(OC)cc1NCC(=O)Nc1cccc(C(F)(F)F)c1`, the “hERG current change (%, negative = inhibition) at 10uM” value rises from -18.2% to 13.8%.

First: O=C(CCc1ccccc1)Nc1nc2n(n1)C(c1ccccc1)CC(=O)N2 (stereo not drawn)
Second: O=C(CN1C(=O)NC2(CCCC2)C1=O)Nc1ccccc1-c1ccccc1
The “hERG current change (%, negative = inhibition) at 10uM” value of the first is higher: 10.7% for the first, 2.69% for the second.

Compared with `Cc1cccc(C(=O)c2cccc(C)c2)c1`, `Cc1cccc(OCCN2C(=O)C(=O)c3cccc(C)c32)c1` is higher in “hERG current change (%, negative = inhibition) at 10uM” value: 0.61% for the first, 10.2% for the second.

First: CC(=O)Nc1ccc(NC(=O)C(c2ccccc2)c2ccccc2)cc1
Second: O=C(Nc1ccc(CSc2ccccc2)cc1)c1ccccc1
The “hERG current change (%, negative = inhibition) at 10uM” value of the first is higher: 14.7% for the first, 9.58% for the second.

First: CN(C)S(=O)(=O)N(CC(=O)N1CCN(c2ccccc2)CC1)c1ccccc1
Second: O=C1COc2ccc(S(=O)(=O)N3CCN(c4ccccc4)CC3)cc2N1
The “hERG current change (%, negative = inhibition) at 10uM” value of the first is lower: -10.2% for the first, 12.8% for the second.

Going from `CC(/C=N\N1CCN(c2ccc(Cl)cc2)CC1)=C\c1ccccc1` to `CC(C)[C@H](NC(=O)OCc1ccccc1)C(=O)OCC(=O)N1CCN(c2ccc(F)cc2)CC1`, the “hERG current change (%, negative = inhibition) at 10uM” value falls from -1.69% to -75.3%.

Going from `CCOc1ccc2nc(NC(=O)CCn3cccc3)sc2c1` to `CCn1c(Cc2ccccc2)nnc1SCC(=O)Nc1nc2ccccc2s1`, the “hERG current change (%, negative = inhibition) at 10uM” value rises from -10.4% to -0.933%.

Compared with `CC1CCCN(C(=O)c2cc(F)c(F)cc2Cl)C1` (stereo not drawn), `O=C(c1cc2nc(C3CC3)cc(C(F)(F)F)n2n1)N1CCCC1` is higher in “hERG current change (%, negative = inhibition) at 10uM” value: -47.4% for the first, -0.231% for the second.

First: O=C(CSc1ccccc1)N1CCC(N2CCC(C(=O)N3CCCC3)CC2)CC1
Second: CN(Cc1ccccc1)C(=S)NC(=O)C1CCCCC1
The “hERG current change (%, negative = inhibition) at 10uM” value of the first is lower: -25.1% for the first, 8.05% for the second.

First: COc1ccc(C(CNC(=O)c2oc3ccc(OC)cc3c2C)N2CCCC2)cc1 (stereo not drawn)
Second: COc1ccc(C(=O)NCC(=O)N2CCN(c3ccc(F)cc3)CC2)cc1
The “hERG current change (%, negative = inhibition) at 10uM” value of the first is lower: -67.5% for the first, -1.94% for the second.

Going from `CCOc1cc(N2CCOCC2)c(OCC)cc1NC(C)C(=O)N1CCC(C)CC1` (stereo not drawn) to `C#CCOCCOCCOCCNc1nc(N2CCOCC2)nc(N2CCN(C(=O)[C@H](CCCCN)n3cc([C@@H](N)CO)nn3)CC2)n1.Cl`, the “hERG current change (%, negative = inhibition) at 10uM” value falls from 10.1% to -6.57%.

Compared with `O=C(CSCc1nc2c(nnn2Cc2ccc(F)cc2)c(=O)[nH]1)Nc1cccc(C(F)(F)F)c1`, `FC(F)(F)c1cccc(-n2cc(-c3ccccc3)[nH]c2=S)c1` is higher in “hERG current change (%, negative = inhibition) at 10uM” value: 14.3% for the first, 14.5% for the second.

First: COc1ccccc1N1CCN(S(=O)(=O)c2ccc3c(c2)NC(=O)C(C)S3)CC1 (stereo not drawn)
Second: Cc1ccc2c(c1)C1CN(C)CCC1N2C(=O)c1ccccc1NS(=O)(=O)c1ccc(F)cc1 (stereo not drawn)
The “hERG current change (%, negative = inhibition) at 10uM” value of the first is higher: -1.81% for the first, -15.6% for the second.

First: Cc1csc(NC(=O)c2ccc(Br)s2)n1
Second: CCC(Br)C(=O)Nc1ccc(OC)cc1 (stereo not drawn)
The “hERG current change (%, negative = inhibition) at 10uM” value of the first is lower: 1.62% for the first, 18.3% for the second.

Going from `Cc1onc(-c2ccccc2)c1C(=O)OCC(=O)Nc1ccc(OC(F)(F)F)cc1` to `C=CCNc1nc(-c2ccccc2)c(C(=O)OCC)cc1C#N`, the “hERG current change (%, negative = inhibition) at 10uM” value falls from -5.83% to -16.6%.

First: CC[C@@]12C(=O)N(c3cccc(F)c3)C(=O)N1[C@H](c1ccc(OC)cc1)[C@@H]1C(=O)N(C(C)(C)C)C(=O)[C@@H]12
Second: COc1ccc(-n2cnc3cc(NCc4ccccn4)ccc32)cc1
The “hERG current change (%, negative = inhibition) at 10uM” value of the first is higher: -8.29% for the first, -19.1% for the second.

First: Cc1ccccc1-c1nnc(SCC(=O)Nc2ccc3c(c2)OCCO3)n1N
Second: COCCn1c(SCC(=O)Nc2ccc(Cl)c(S(=O)(=O)N(C)C)c2)nc2ccccc21
The “hERG current change (%, negative = inhibition) at 10uM” value of the first is higher: 1.4% for the first, -30.8% for the second.

Going from `COc1ccccc1C1C=C(c2ccccc2)Nc2nnnn21` (stereo not drawn) to `Cn1c(Sc2ccc([N+](=O)[O-])cc2C(F)(F)F)nnc1-c1ccccc1`, the “hERG current change (%, negative = inhibition) at 10uM” value falls from -1.14% to -55%.

First: COc1ccc(C)cc1-n1c(SCC(=O)Nc2cc(C)on2)nc2ccccc2c1=O
Second: Nc1cc(=O)nc(SCC(=O)Nc2ccccc2Cl)n1-c1ccccc1
The “hERG current change (%, negative = inhibition) at 10uM” value of the first is lower: 10% for the first, 31.3% for the second.

Compared with `CCN(CC(=O)Nc1c(F)cccc1F)C(=O)CN1C(=O)c2ccccc2C1=O`, `O=C(O)CCN1C(=O)/C(=C2\C(=O)N(Cc3ccccc3Cl)c3ccccc32)SC1=S` is higher in “hERG current change (%, negative = inhibition) at 10uM” value: 2.29% for the first, 12.8% for the second.

Compared with `OCCC1CN(Cc2cn[nH]c2C2CCCCC2)CCN1C1CCCC1` (stereo not drawn), `COc1ccc(-c2ncc(CN3CCN(CCC(C)C)C(CCO)C3)cn2)cc1` (stereo not drawn) is lower in “hERG current change (%, negative = inhibition) at 10uM” value: 0.0531% for the first, -43.4% for the second.

Compared with `COc1ccc(-c2cc(C(F)F)n3ncc(C(=O)Nc4cnn(Cc5ccccc5)c4)c3n2)cc1`, `Cc1c(NC(=O)c2cc(-c3ccc(Br)cc3)on2)c(=O)n(-c2ccccc2)n1C` is higher in “hERG current change (%, negative = inhibition) at 10uM” value: -3.38% for the first, 3.07% for the second.

First: COc1ccc(CCOC(=O)c2ccc(N)c([N+](=O)[O-])c2)cc1
Second: COc1ccc(NC(=O)Cc2ccc(C)cc2)c([N+](=O)[O-])c1
The “hERG current change (%, negative = inhibition) at 10uM” value of the first is higher: 27.1% for the first, 9.04% for the second.

Going from `O=C(CN(Cc1ccccc1)C(=O)CCC(=O)Nc1ccccn1)NCc1ccc(F)cc1` to `O=C(NCCc1c[nH]c2ccccc12)c1cccc(S(=O)(=O)Nc2ccccc2Cl)c1`, the “hERG current change (%, negative = inhibition) at 10uM” value rises from -20.5% to 6.04%.

Going from `C[C@H](CO)NC(=O)[C@H](C)[C@H]1C[C@]1(C)[C@H](NC(=O)OCc1ccccc1)c1ccccc1` to `COC(=O)C(NNc1ccccc1)(NC(=O)c1ccccc1F)C(F)(F)F` (stereo not drawn), the “hERG current change (%, negative = inhibition) at 10uM” value rises from -3.55% to 8.03%.

Compared with `C#CCOCCOCCOCCNc1nc(N2CCN(C(=O)CCCCCCCCCCNC(=O)[C@H]([C@@H](C)CC)n3cc(CCCCN=C(N)N)nn3)CC2)nc(N2CCN(C(=O)CCCCCCCCCCNC(=O)[C@H](CO)n3cc(CCCSC)nn3)CC2)n1`, `CCCCCC(=O)NCC(C)NC(=O)CCCCC` (stereo not drawn) is lower in “hERG current change (%, negative = inhibition) at 10uM” value: 32.9% for the first, 4.47% for the second.

First: C=C1C[C@@H]2[C@H](CC[C@]3(C)C(=O)CC[C@@H]23)[C@@]2(C)C=CC(=O)C=C12
Second: COC(=O)C1=C(C)NC(=O)NC1C1CC=CCC1 (stereo not drawn)
The “hERG current change (%, negative = inhibition) at 10uM” value of the first is lower: -7.85% for the first, 19.2% for the second.

First: CCCN1CCC(=O)N([C@H](CSc2ccc(C)cc2)c2ccccc2)CC1
Second: CCCn1c(C2CCCN2c2nc(-c3ccc(C)cc3)cs2)nc2ccccc21 (stereo not drawn)
The “hERG current change (%, negative = inhibition) at 10uM” value of the first is lower: -76% for the first, 11.3% for the second.

First: CC(=O)c1ccc(NC(=O)/C(=C\c2cccs2)NC(=O)c2ccco2)cc1
Second: Cc1ccc(NC(=O)OCCNC(=O)c2ccncc2)cc1
The “hERG current change (%, negative = inhibition) at 10uM” value of the first is higher: 17.9% for the first, 8.86% for the second.

Going from `CCOC(=O)c1cn(-c2ccccc2CO)c2c(F)c(F)c(F)cc2c1=O` to `Cc1c(O)ccc2c(CN3CCN(C/C=C/c4ccccc4)CC3)cc(=O)oc12`, the “hERG current change (%, negative = inhibition) at 10uM” value falls from 26.5% to -64.1%.

Going from `Cc1cccc(Nc2nc(N)c([N+](=O)[O-])c(N3CCCC(C)C3)n2)c1` (stereo not drawn) to `Cc1nn(Cc2ccccc2)c(C)c1NC(=O)CSc1nc2sc3c(c2c(=O)n1C)CCC3`, the “hERG current change (%, negative = inhibition) at 10uM” value rises from 0.369% to 0.966%.

Compared with `COc1ccc(Cl)cc1N(CC(=O)N/N=C/c1ccc(OCC(N)=O)cc1)S(C)(=O)=O`, `COc1cc(OC)c(NC(=O)CCc2ccccc2)cc1Cl` is lower in “hERG current change (%, negative = inhibition) at 10uM” value: 7.22% for the first, -5.18% for the second.

First: FC(F)(F)c1ccccc1Nc1nccs1
Second: O=C(Cc1ccccn1)c1ccccc1
The “hERG current change (%, negative = inhibition) at 10uM” value of the first is lower: -16.1% for the first, 30.3% for the second.

Compared with `Cc1ccc(/C=C/c2nc3ccccc3c(=O)[nH]2)cc1`, `COc1c[nH]n(-c2ccccc2)c(=O)c1=O` is lower in “hERG current change (%, negative = inhibition) at 10uM” value: 20.6% for the first, 12.3% for the second.

Going from `O=C(O)CCc1c(C(=O)O)[nH]c2ccccc12` to `Cc1nn(CCC(=O)NNC(=S)NCC(C)C)c(C)c1Br`, the “hERG current change (%, negative = inhibition) at 10uM” value rises from 12.7% to 14%.
